Assay results: the supplement of paper PMC11876631
Changes are numbered by the printed parent chain. Names and notes keep the numbering of the source. ± gives the standard deviation of the averaged measurements. Laboratory Escherichia coli strains with one amino-acid change in an essential protein, pooled on minimal glucose agar with carbenicillin or gentamicin at twice the control MIC (plus kanamycin and chloramphenicol for the plasmids), 48 h. Fold change of barcode share against drug-free plates; higher = less susceptible. Active = above 20 in both replicates (the paper's putatively resistant). '<' = one read or none on drug, '>' = one read or none on a drug-free plate. Shares are relative, so most strains fall below 1 when a few take over. Listed are strains with at least 15 reads on both drug-free plates, and hits; most hits rest on fewer reference reads. Replicate rank correlation about 0.5. Edits are read from barcodes.

B1: pyrG V413A (protein)
chain: MTTNYIFVTGGVVSSLGKGIAAASLAAILEARGLNVTIMKLDPYINVDPGTMSPIQHGEVFVTEDGAETDLDLGHYERFIRTKMSRRNNFTTGRIYSDVLRKERRGDYLGATVQVIPHITNAIKERVLEGGEGHDVVLVEIGGTVGDIESLPFLEAIRQMAVEIGREHTLFMHLTLVPYMAASGEVKTKPTQHSVKELLSIGIQPDILICRSDRAVPANERAKIALFCNVPEKAVISLKDVDSIYKIPGLLKSQGLDDYICKRFSLNCPEANLSEWEQVIFEEANPVSEVTIGMVGKYIELPDAYKSVIEALKHGGLKNRVSVNIKLIDSQDVETRGVEILKGLDAILVPGGFGYRGVEGMITTARFARENNIPYLGICLGMQVALIDYARHVANMENANSTEFVPDCKYPVAALITEWRDENGNVEVRSEKSDLGGTMRLGAQQCQLVDDSLVRQLYNAPTIVERHRHRYEVNNMLLKQIEDAGLRVAGRSGDDQLVEIIEVPNHPWFVACQFHPEFTSTPRDGHPLFAGFVKAASEFQKRQAK
B2: pyrG V13A (protein)
chain: B1 chain with V13A, A413V
B3: pyrG V413Q (protein)
chain: B1 chain with A413Q
B4: pyrF V18A (protein)
chain: MTLTASSSSRAVTNSPVAVALDYHNRDDALAFVDKIDPRDCRLKVGKEMFTLFGPQFVRELQQRGFDIFLDLKFHDIPNTAAHAVAAAADLGVWMVNVHASGGARMMTAAREALVPFGKDAPLLIAVTVLTSMEASDLVDLGMTLSPADYAERLAALTQKCGLDGVVCSAQEAVRFKQVFGQEFKLVTPGIRPQGSEAGDQRRIMTPEQALSAGVDYMVIGRPVTQSVDPAQTLKAINASLQRSA
B5: pyrF M95A (protein)
chain: B4 chain with A18V, M95A
B6: pyrF L154D (protein)
chain: B4 chain with A18V, L154D
B7: pyrF L154A (protein)
chain: B4 chain with A18V, L154A
B8: pyrF L154Q (protein)
chain: B4 chain with A18V, L154Q
B9: pyrF V19W (protein)
chain: B4 chain with A18V, V19W
B10: pyrF L154P (protein)
chain: B4 chain with A18V, L154P
B11: pyrF V19A (protein)
chain: B4 chain with A18V, V19A
B12: pyrF V19Q (protein)
chain: B4 chain with A18V, V19Q
B13: pyrF L154W (protein)
chain: B4 chain with A18V, L154W
B14: pyrF V18Q (protein)
chain: B4 chain with A18Q
B15: pyrE F8A (protein)
chain: MKPYQRQAIEFALSKQVLKFGEFTLKSGRKSPYFFNAGLFNTGRDLALLGRFYAEALVDSGIEFDLLFGPAYKGIPIATTTAVALAEHHDLDLPYCFNRKEAKDHGEGGNLVGSALQGRVMLVDDVITAGTAIRESMEIIQANGATLAGVLISLDRQERGRGEISAIQEVERDYNCKVISIITLKDLIAYLEEKPEMAEHLAAVKAYREEFGV
B16: pyrE F8W (protein)
chain: B15 chain with A8W

Molecular target: Escherichia coli (laboratory strain)
Test: barcode share on antibiotic plates over drug-free plates; higher = less susceptible
Conditions: antibiotic: carbenicillin; 2× MIC (3.1 µg/mL)
Experimental: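 A pool of E. coli strains, each edited to carry one amino-acid change in an essential protein, was grown for 48 h on minimal glucose agar with or without antibiotic; strain barcodes were sequenced; mean of two replicates.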

Protein | fold change of barcode share
B1 | 0.65 ± 0.07
B2 | 0.333 ± 0.13
B3 | 1.14 ± 0.44
B4 | 0.373 ± 0.053
B5 | 1.37 ± 0.48
B6 | 2.35 ± 0.09
B7 | 1.01 ± 0.24
B8 | 0.887 ± 0.074
B9 | 0.816 ± 0.23
B10 | 46.1 [active]
B11 | 0.409 ± 0.15
B12 | 0.54 ± 0.15
B13 | 0.678 ± 0.28
B14 | 0.865 ± 0.13
B15 | 0.21 ± 0.044
B16 | 0.397 ± 0.078

Same assay, conditions: antibiotic: gentamicin; 2× MIC (MIC 0.45 µg/mL)

Protein | fold change of barcode share
B1 | < 0.00308
B2 | < 0.00544
B3 | 0.0638 ± 0.015
B4 | < 0.0107
B5 | 0.0192 ± 0.0032
B6 | 0.034 ± 0.0045
B7 | 0.0119 ± 0.00094
B8 | 0.0532 ± 0.014
B11 | < 0.0146
B12 | 0.0194 ± 0.013
B13 | 0.713 ± 0.63
B14 | 0.0175 ± 0.012
B15 | < 0.00983
B16 | < 0.0118
